{"source": "PubChem BioAssay AID686979", "about": "(National Center for Advancing Translational Sciences (NCATS), 2013)", "note": "About 50,000 (12%) of roughly 420,000 compounds were called active. Inconclusive means that the source gave no clear call. Such entries were picked first, then a sample of the others. Calls follow the shape of the dose curve; as a rule, active = well fitted inhibition curve with a large enough effect; inconclusive = small, poorly fitted or top-dose-only effect; inactive = flat fitted curve, though single readings scatter. No potency is given beside an inconclusive call; the fits are too rough. Potency is read from the fitted curve at half-maximal effect; tags tell the direction and shape of the fitted curve."}
{"assay": "qHTS for Inhibitors of human tyrosyl-DNA phosphodiesterase 1 (TDP1): qHTS in cells in presence of CPT; also: nearly all actives have a fitted effect of over 55% in size", "details": "chicken DT40 Tdp1-/-;hTDP1 cells + 20 nM CPT, ATP luminescence, 48 h; series mostly up to 46.2 µM", "outline": "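Cell growth measured by CellTiter-Glo luminescence after a minimum 48 h, 37 C compound exposure with 20 nM CPT in Tdp1-knockout DT40 cells stably expressing hTDP1, seeded 400/well; qHTS titration format.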"}
{"smiles": "Cc1ccc(C(=O)CC(=O)COc2ccc(Cl)cc2)cc1", "Potency": "inconclusive [inhibitor, single point]"}
{"smiles": "O=C(O)c1ccc(NC(=S)NC(=O)C(c2ccccc2)c2ccccc2)cc1", "Potency": "inconclusive [inhibitor, single point]"}
{"smiles": "Cc1ccc(C)c(N2CCN(C(=O)Nc3cn(CC(C)C)c(=O)c4ccccc34)CC2)c1", "Potency": "active: 13 µM"}
{"smiles": "CN(C)CCCN(C(=O)c1ccco1)c1nc2c(F)cccc2s1", "Potency": "inconclusive [inhibitor, single point]"}
{"smiles": "COCCNC(=O)/C(C#N)=C/c1ccc(OC(=O)c2cccs2)c(OC)c1", "Potency": "inconclusive [inhibitor, partial curve]"}
{"smiles": "COc1ccc(C(=O)C[n+]2ccc3c(c2)nc(-c2ccccc2)n3C)cc1", "Potency": "active: 11.6 µM"}
{"smiles": "Cc1nn(S(=O)(=O)c2cccs2)c(C)c1Sc1ccc([N+](=O)[O-])cc1", "Potency": "inconclusive [inhibitor, single point]"}
{"smiles": "COc1ccc(Cn2c(C(=O)O)c(CNCC(C)c3ccccc3)c3ccc(OC)cc32)cc1", "note": "(configuration not stated)", "Potency": "inconclusive [inhibitor, single point]"}
{"smiles": "O=c1cc(CO)oc(C(Nc2ccccn2)c2ccc(C(F)(F)F)cc2)c1O", "note": "(configuration not stated)", "Potency": "inconclusive [inhibitor, single point]"}
{"smiles": "Cn1c2ccc(F)cc2c2nnc(NN)nc21", "Potency": "inconclusive [inhibitor, single point]"}
{"smiles": "CCN(CC)CCN(C(=O)CCS(=O)(=O)c1ccccc1)c1nc2cc(OC)c(OC)cc2s1", "Potency": "inconclusive [inhibitor, single point]"}
{"smiles": "CCC(=O)Nc1ccc(-c2nnc(SCc3ccc(C(=O)Nc4nccs4)cc3)n2CC)cc1", "Potency": "inconclusive [inhibitor, single point]"}
{"smiles": "COc1cc(OC)cc(C2=NC3(CCC(C)CC3)NC2=S)c1", "note": "(configuration not stated)", "Potency": "inconclusive [inhibitor, single point]"}
{"smiles": "CN(C)CCn1c(C(=O)O)cc2ccccc21", "Potency": "inactive"}
{"smiles": "CC(C)(C)NC(=O)CN(C(=O)CSc1nnc(COc2ccccc2)o1)c1cccc(F)c1", "Potency": "inconclusive [inhibitor, single point]"}
{"smiles": "CCOc1ccc(CCNC(=O)c2sc3nc4n(c(=O)c3c2C)CCC4)cc1OCC", "Potency": "inactive"}
{"smiles": "Cc1ccc(C(CNS(=O)(=O)c2cc(F)ccc2F)N2CCN(C)CC2)cc1", "note": "(configuration not stated)", "Potency": "inconclusive [inhibitor, partial curve]"}
{"smiles": "COc1ccc(NC(=O)C(=O)NCC(=O)Nc2cccc(C(F)(F)F)c2)cc1", "Potency": "inactive"}
{"smiles": "COc1cccc(CNC(=O)Cn2nc([N+](=O)[O-])c(Br)c2C)c1", "Potency": "inconclusive [inhibitor, full curve, poor fit]"}
{"smiles": "COc1ccc(C(=O)N2CCCC(c3nc(SCc4ccccn4)ncc3C)C2)cc1F", "note": "(configuration not stated)", "Potency": "active: 9.2 µM"}
{"smiles": "COc1cccc(Cn2c(=O)n(CC3CCC(C(=O)N4CCCCC4)CC3)c(=O)c3sccc32)c1", "note": "(configuration not stated)", "Potency": "inconclusive [inhibitor, single point]"}
{"smiles": "COc1ccccc1N1CCN(C(=O)C2CCN(S(=O)(=O)c3c(C)noc3/C=C/c3ccc(C)cc3)CC2)CC1", "Potency": "inconclusive [inhibitor, single point]"}
{"smiles": "Nc1nnnn1/N=C/c1cc(Cl)cc(Cl)c1O", "Potency": "inactive"}
{"smiles": "O=C1CCCC/C=C\\C[C@H](CC(=O)N(CCO)Cc2ccccc2)C(=O)N[C@@H](Cc2ccccc2)CO1", "Potency": "inconclusive [inhibitor, partial curve]"}
{"smiles": "Cc1ccc(OCC(=O)Nc2cccc(S(=O)(=O)NC3=NCCCCC3)c2)cc1C", "Potency": "inconclusive [inhibitor, partial curve]"}
{"smiles": "CCOc1ccc(NC(=S)N(CCc2c(C)[nH]c3ccc(C)cc23)Cc2ccncc2)cc1", "Potency": "inconclusive [inhibitor, single point]"}
{"smiles": "CC1(C(=O)NS(=O)(=O)c2ccc(Cl)cc2)CCN1C(=O)c1ccco1", "note": "(configuration not stated)", "Potency": "inactive"}
{"smiles": "Cc1occc1C(=O)N1CCCC(N2CCN(c3cccc(Cl)c3)CC2)C1", "note": "(configuration not stated)", "Potency": "inconclusive [inhibitor, single point]"}
{"smiles": "CSc1nc2ccc(NC(=O)c3cc4ccccc4o3)cc2s1", "Potency": "inactive"}
{"smiles": "CCOC(=O)N1CCC(NC(=O)c2cc3c(-c4cccc(OC)c4)nn(C)c3s2)CC1", "Potency": "active: 23.1 µM"}
{"smiles": "CN(C)C(=O)c1cccc(-c2cc(NC=O)c3ncc(-c4ccc(F)cc4)n3c2)c1", "Potency": "inconclusive [inhibitor, single point]"}
{"smiles": "Cc1cc(C)cc(-n2c(SCC(=O)NCc3ccco3)nc3c([nH]c4ccccc43)c2=O)c1", "Potency": "inconclusive [inhibitor, single point]"}
{"smiles": "CC(C)(C(=O)N1CCC1(C)C(=O)Nc1ccccc1Br)c1ccccc1", "note": "(configuration not stated)", "Potency": "inconclusive [inhibitor, single point]"}
{"smiles": "COc1ccc(NC(=O)NCCc2c(C)nn(C)c2C)c(OC)c1", "Potency": "inactive"}
{"smiles": "CC(=O)Cn1nnc2sc3c(c2c1=O)CCC(C(C)(C)C)C3", "note": "(configuration not stated)", "Potency": "inconclusive [inhibitor, single point]"}
{"smiles": "COc1cc(N(C(=O)Cc2cccs2)C(C(=O)NC2CCCCC2)c2ccc(C)cc2)ccc1-n1cnnn1", "note": "(configuration not stated)", "Potency": "active: 20.6 µM"}
{"smiles": "COc1cccc(NC(=O)CSc2nnc(COc3ccc(Cl)cc3)o2)c1", "Potency": "inactive"}
{"smiles": "COC(=O)[C@@]12C[C@@H](CC(=O)NCC34CC5CC(CC(C5)C3)C4)C(=O)N(Cc3cccc4ccccc34)C1=CCC(C)(C)C2", "Potency": "inconclusive [inhibitor, single point]"}
{"smiles": "Nc1ncnc(N(c2ccccc2)C2CCCCC2)c1[N+](=O)[O-]", "Potency": "inconclusive [inhibitor, partial curve]"}
{"smiles": "Cc1cc(C)cc(N2CC(O)=C(c3nc4ccccc4c(=O)[nH]3)C2=N)c1", "Potency": "active: 13 µM"}
{"smiles": "COc1ccc(-c2ccc(-c3noc(-c4ccccc4)n3)c(OC)n2)cc1", "Potency": "inconclusive [inhibitor, single point]"}
{"smiles": "CN1C(=O)/C(=C/c2ccc(OCc3cccc(F)c3)cc2)NC1=S", "Potency": "inactive"}
